Data on 44 compounds can be found in ChEMBL document CHEMBL4888484, “Replenishing the malaria drug discovery pipeline: Screening and hit evaluation of the MMV Hit Generation Library 1 (HGL1) against asexual blood stage Plasmodium falciparum ,using a nano luciferase reporter read-out” (2022).

Hit rate of the full screen: of about 150,000 compounds, about 540 (0.36%) showed an effect of 50% or more. The list shows a part of the results.

This assay deals with Plasmodium falciparum. In words: Primary screen in NF54 nanoGlo assay, in single point, at 2uM, 72h; a lower Z score goes with more inhibition. In kind it is functional, Erythrocyte. The conditions noted are these: timepoint 72 hour.
For orientation: % Inhibition means the relative decrease from the control value, in per cent. As for `CCC(C)(C)N(C)Cc1nc2ncc(Br)cn2n1`, the “% Inhibition” value was -6% and the Z score worked out at 1.24.

With `O=C(O)c1ccccc1-n1ncc2c1C(=Cc1ccccc1)CCC2`, the “% Inhibition” value is -11% and the Z score worked out at 1.75.

As for `CC(C)(C)[C@H]1CCCN(C(=O)CCc2cn[nH]c2)CC1`, the “% Inhibition” value is reported as -15% and the Z score amounted to 2.2.

Turning to `FC(F)(F)c1cccc(C2(c3nc(-c4ccccn4)no3)CCOCC2)c1`, the “% Inhibition” value stood at 0% and the Z score worked out at 0.05.

`Cc1oncc1C(=O)NCCCn1cccn1`: the “% Inhibition” value is given as 1% and the Z score was -0.16.

With `CN(Cc1cccc(OC(F)F)c1)Cc1cc(=O)n2nccc2[nH]1`, the “% Inhibition” value is given as -14% and the Z score is given as 2.28.

For `Cn1nc(CNC(=O)CO)c2c(Cl)cccc21`, the “% Inhibition” value is on record as -5% and the Z score amounted to 0.79.

As to `Nc1ccc(C(=O)NC(Cc2ccccn2)[C@H]2C[C@H](O)C2)cn1` (stereo partly drawn), the “% Inhibition” value is -7% and the Z score stood at 0.79.

For `COc1cc(OC)cc(C(=O)N2CCc3cc(-c4ccno4)ccc32)c1`, the “% Inhibition” value is -1% and the Z score worked out at 0.1.

For `O=C(Nc1ccc(NC2CCCCC2)cc1)c1cnccn1`, the “% Inhibition” value amounted to 1% and the Z score is given as -0.11.

As to `Cc1c(C(=O)N2CCN(C3CCCCC3)CC2)cccc1-n1nnc2cccnc21`, the “% Inhibition” value is listed as -6% and the Z score amounted to 1.08.

With `CC(C)C[C@H]1NC(=O)[C@H]2CN(S(=O)(=O)c3ccccc3F)CCN2C1=O`, the “% Inhibition” value was -1% and the Z score is 0.27.

Take `CCn1nc(CO)c2c1CCN(Cc1ccccc1C#N)C2`: the “% Inhibition” value is reported as -4% and the Z score turned out to be 0.67.

Turning to `CC1=C(c2ccc(C)cc2)S(=O)(=O)N=C1N1CCC(NC(=O)c2ccncc2)CC1`, the “% Inhibition” value is -5% and the Z score is listed as 0.99.

Regarding `CC(C(=O)N1CCc2ccccc21)N(C)CC1COc2ccccc2O1` (stereo not drawn), the “% Inhibition” value amounted to 16% and the Z score is given as -1.85.

For the compound `CCn1nc(C)c(Nc2ncc(Br)cn2)c1C`, the “% Inhibition” value is -3% and the Z score was determined as 0.46.

As for `O=C(C#Cc1ccccc1)N1CCC[C@@](CO)(CCOc2ccccc2)C1`, the “% Inhibition” value is listed as -5% and the Z score is 0.59.

Consider `Cc1cc(C(=O)Nc2ccncc2)c2c(-c3ccccc3F)noc2n1`, for which the “% Inhibition” value worked out at 8% and the Z score is given as -0.93.

On to `CN1CCC(N(CCc2ccccc2)S(=O)(=O)N2CCCCCC2)CC1`, for which the “% Inhibition” value is recorded as -12% and the Z score is on record as 1.66.

For `COc1ccccc1OC1(C(=O)O)CCN(c2nccc(N)n2)CC1`, the “% Inhibition” value is on record as 9% and the Z score is -1.17.

Turning to `CC1C2C(c3ccccc3)N(C)C(=O)N(C)C2N(C)C(=O)N1C` (stereo not drawn), the “% Inhibition” value was -2% and the Z score is listed as 0.45.

As for `CS(=O)(=O)[C@H]1CCN(c2ccc(C(=O)Nc3ccccc3)nn2)C1`, the “% Inhibition” value is 1% and the Z score is listed as -0.29.

For the compound `CNS(=O)(=O)[C@H]1CCN(C(=O)NCCc2ccc(OC(F)F)cc2)C1`, the “% Inhibition” value was -12% and the Z score is 1.11.

For the compound `CCc1nnc(NC2CCN(Cc3ccccc3)CC2)c(C#N)c1CC`, the “% Inhibition” value is given as -4% and the Z score is 0.77.

Consider `CCOC(=O)Cn1cnc2c1c(=O)n(C[C@H]1CCCO1)c(=O)n2-c1ccccc1`, for which the “% Inhibition” value is listed as -5% and the Z score worked out at 0.47.

For the compound `CCCN1CCN(S(=O)(=O)c2cc(-c3nc(C)cs3)n(CC(=O)N3CCCCC3)c2)CC1`, the “% Inhibition” value is reported as -14% and the Z score turned out to be 1.68.

For the compound `Cc1nccc(NC(=O)N2Cc3ccccc3O[C@@H](C)C2)n1`, the “% Inhibition” value is reported as 3% and the Z score is given as -0.37.

On to `Cc1noc(C)c1CN[C@@H](C)CCc1c[nH]c2ccccc12`, for which the “% Inhibition” value is -19% and the Z score came out at 2.33.

Turning to `Cc1cnc(CN[C@@H](Cc2ccccc2)C2CCCCC2)cn1`, the “% Inhibition” value was -3% and the Z score was 0.55.

With `CCc1noc2nc(C)n(CC(=O)NCc3ccc(OC)cc3)c(=O)c12`, the “% Inhibition” value is -5% and the Z score turned out to be 0.73.

As for `CC1C(c2ccccc2)CCN1CC(=O)N1CCOC2CCCCC21` (stereo not drawn), the “% Inhibition” value was found to be 4% and the Z score is given as -0.54.

With `Cc1cccc(-c2nc3[nH]c(CNc4cc(Cl)ccc4C)cc(=O)n3n2)c1`, the “% Inhibition” value is given as 16% and the Z score is -1.83.

With `O=C(c1cccnc1)N1C[C@@H]2OCC(=O)N(Cc3ccncc3)[C@@H]2C1`, the “% Inhibition” value was 15% and the Z score is -1.74.

On to `O=C(CN1Cc2ccccc2O[C@H](c2ccccc2F)C1)NCCCN1CCOCC1`, for which the “% Inhibition” value was 5% and the Z score is -0.63.

As to `COc1ccc(CN(C)CC(=O)Nc2nc(-c3ccc(OC)cc3OC)cs2)c(OC)c1`, the “% Inhibition” value was determined as 2% and the Z score was -0.35.

Take `O=C(Cn1ccnc1)NCc1cccs1`: the “% Inhibition” value is -7% and the Z score is recorded as 0.93.

For the compound `O=C(c1cn2c(n1)CC[C@H](c1cccc(C(F)(F)F)c1)C2)N1CCN(c2ccccc2F)CC1`, the “% Inhibition” value is listed as -9% and the Z score is given as 1.38.

For `Cc1ocnc1C(=O)Nc1ccc(Oc2nnn[nH]2)cc1`, the “% Inhibition” value is listed as -28% and the Z score is 2.47.

Turning to `Cc1cc(Cl)ccc1CN1CCC(OC2CCOCC2)CC1`, the “% Inhibition” value turned out to be 0% and the Z score is recorded as -0.04.

Regarding `Cc1cnc(C(=O)NC2CC3CC3C2)o1` (stereo not drawn), the “% Inhibition” value is -5% and the Z score is reported as 0.57.

For `COC1(c2ccccc2)CCN(c2cc(C3CC3)ncn2)CC1`, the “% Inhibition” value amounted to 3% and the Z score was -0.46.

On to `CC(C)(C)C(=O)NCc1cccc(C(F)(F)F)c1`, for which the “% Inhibition” value is -15% and the Z score turned out to be 2.2.

As for `COc1nccnc1NC1CCN(C(=O)NCc2ccco2)CC1`, the “% Inhibition” value was -11% and the Z score amounted to 1.39.

Take `COCC1(C(=O)N2CCC[C@H]2c2nc(-c3ccccc3)no2)CCC1`: the “% Inhibition” value amounted to 6% and the Z score was -0.78.
